Measurements as given in the supplement of paper PMC12217912.
The other results are listed elsewhere or left out. The full chains were built here from the parent and the listed change. Values near 0.05 are background.

B1: TEV protease; numbered along this chain (parent)
chain: MGESLFKGPRDYNPISSSICHLTNESDGHTTSLYGIGFGPFIITNKHLFRRNNGTLVVQSLHGVFKVKDTTTLQQHLVDGRDMIIIRMPKDFPPFPQKLKFREPQREERICLVTTNFQTKSMSSMVSDTSCTFPSGDGIFWKHWIQTKDGQCGSPLVSTRDGFIVGIHSASNFTNTNNYFTSVPKNFMELLTNQEAQQWVSGWRLNADSVLWGGHKVFMVKPEEPFQPVKEATQL

Variants of: B1
Assay: raw area under fraction-flipped curve 0-4 h after induction (AUC4h, not background-subtracted), DNA-recorder readout of cleavage of the substrate (dimensionless); higher = more cleavage of the substrate by the protease variant
Details: temperature: 34 °C; time window: 0-4 h after rhamnose induction
Method: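 In vivo DNA recorder in E. coli TOP10(DE3) ΔrhaA at 34 °C. Each TEVp single-site mutant (parent TEVp 0) is paired with a single-site variant of the 7-mer TEVs (canonical ENLYFQ|S). The substrate sits between flexible linkers in a Bxb1-sfGFP-TEVs-SsrA fusion, so cleavage stabilises Bxb1 and speeds flipping of a recombination array, read by NGS. The value is the raw area under the fraction-flipped curve over 0-4 h after rhamnose induction (AUC4h), with ≥20 reads per time point. It is not background-subtracted; inactive controls average about 0.047.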
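Also: Bxb1 expression induced with 0.2% (w/v) L-rhamnose at OD600 near 0.5, cultures sampled hourly, flipped fraction per protease–substrate barcode pair counted by paired-end Illumina sequencing.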

Row | Variant | area with substrate CNLYFQS | area with substrate FNLYFQS | area with substrate GNLYFQS | area with substrate INLYFQS | area with substrate KNLYFQS | area with substrate MNLYFQS | area with substrate PNLYFQS | area with substrate SNLYFQS | area with substrate TNLYFQS | area with substrate WNLYFQS | area with substrate YNLYFQS | area with substrate HNLYFQS | area with substrate LNLYFQS | area with substrate NNLYFQS | area with substrate QNLYFQS | area with substrate VNLYFQS | area with substrate DNLYFQS | area with substrate RNLYFQS
1 | P134E | 0.0544 | 0.0716 | 0.0643 | 0.0356 | 0.0634 | 0.0691 | 0.0619 | 0.0699 | 0.0593 | 0.0536 | 0.0558 | – | – | – | – | – | – | –
2 | P134L | 0.0401 | 0.0395 | 0.063 | – | – | 0.0677 | 0.0707 | 0.0486 | – | – | 0.0619 | 0.0631 | 0.0516 | 0.052 | – | – | – | –
3 | S135D | 0.0782 | 0.0621 | – | 0.0589 | – | 0.0783 | 0.0652 | 0.0692 | – | 0.0681 | 0.0336 | 0.0671 | 0.0784 | – | – | – | – | –
4 | S135I | 0.0664 | 0.0484 | 0.0504 | – | 0.0541 | 0.0598 | – | 0.0586 | 0.0572 | 0.082 | 0.0598 | 0.0623 | 0.0684 | 0.059 | 0.0539 | 0.0602 | – | –
5 | G136P | 0.0694 | – | 0.0442 | – | 0.0557 | 0.0669 | – | 0.0602 | 0.0599 | 0.0533 | 0.063 | 0.0828 | – | 0.0377 | – | – | – | –
6 | G138Q | 0.0488 | – | – | – | 0.0601 | – | 0.0934 | 0.0728 | – | – | – | 0.064 | – | – | – | 0.0459 | 0.206 | –
7 | I139N | 0.0503 | – | 0.067 | 0.0624 | 0.0668 | 0.0598 | 0.0642 | – | 0.0641 | 0.0451 | 0.0694 | 0.0567 | 0.0757 | – | 0.0581 | 0.0465 | 0.0723 | –
8 | I139Q | 0.0572 | 0.0606 | 0.0574 | – | 0.0653 | 0.0557 | – | – | 0.0592 | 0.0855 | – | 0.0586 | 0.0556 | – | – | – | – | –
9 | F140I | 0.0535 | – | 0.0548 | 0.0524 | 0.062 | – | 0.0569 | 0.0557 | 0.0629 | 0.0557 | 0.0556 | 0.061 | 0.0624 | – | – | 0.0546 | – | –
10 | F140M | 0.0525 | – | 0.0835 | – | 0.0623 | – | – | 0.0663 | – | – | – | – | 0.0561 | 0.0574 | 0.0678 | – | – | –
11 | F140P | 0.0618 | – | 0.0629 | – | – | – | 0.0591 | 0.075 | 0.0553 | 0.0614 | – | 0.0501 | 0.0561 | 0.0492 | 0.0725 | 0.0537 | – | –
12 | W144Q | 0.0614 | – | 0.0663 | 0.065 | 0.064 | 0.0257 | 0.0803 | 0.0625 | 0.0677 | 0.0595 | – | 0.053 | 0.0602 | – | – | – | – | –
13 | W144T | 0.0787 | – | – | – | 0.0683 | 0.059 | 0.0676 | – | 0.0777 | 0.0642 | 0.0626 | – | – | – | – | – | – | –
14 | I145C | 0.0728 | 0.0646 | 0.0503 | – | – | 0.0613 | 0.0824 | – | 0.0981 | 0.0554 | 0.0518 | 0.0683 | 0.0732 | 0.0651 | – | – | – | –
15 | Q146N | 0.087 | – | – | 0.066 | – | 0.0521 | – | 0.0679 | – | 0.0606 | – | 0.0658 | – | – | – | – | – | –
16 | T147Y | 0.0547 | 0.044 | – | – | 0.0697 | – | 0.0533 | 0.0491 | 0.0568 | – | – | 0.0579 | 0.0468 | 0.0927 | – | – | – | –
17 | K148M | 0.062 | 0.0693 | – | – | – | 0.0709 | 0.0757 | 0.0731 | 0.0744 | 0.0536 | 0.0598 | 0.0643 | 0.0574 | 0.0435 | – | – | – | 0.0682
